In patent US20230086069A1 (SYSTIMMUNE, published 2023):

Molecular target: T1, human CD19 on cells (CD20+ B cells of human PBMC; Raji lymphoma cells) (human, UniProt P15391 20-556)
T1 sequence (looked up): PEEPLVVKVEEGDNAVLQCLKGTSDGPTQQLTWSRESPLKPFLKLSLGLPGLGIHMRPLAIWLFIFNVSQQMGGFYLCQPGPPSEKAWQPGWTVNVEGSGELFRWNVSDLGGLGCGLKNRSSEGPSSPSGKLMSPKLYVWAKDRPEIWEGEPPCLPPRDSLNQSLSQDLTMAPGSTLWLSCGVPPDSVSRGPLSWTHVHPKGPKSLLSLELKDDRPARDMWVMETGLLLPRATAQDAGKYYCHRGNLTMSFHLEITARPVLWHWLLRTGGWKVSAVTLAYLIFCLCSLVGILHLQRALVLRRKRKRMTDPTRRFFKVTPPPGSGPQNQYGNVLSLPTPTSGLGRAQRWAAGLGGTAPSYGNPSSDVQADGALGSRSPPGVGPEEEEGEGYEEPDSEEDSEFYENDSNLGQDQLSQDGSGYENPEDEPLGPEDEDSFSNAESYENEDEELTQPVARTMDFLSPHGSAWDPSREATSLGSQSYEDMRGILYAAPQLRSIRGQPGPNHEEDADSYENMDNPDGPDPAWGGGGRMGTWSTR
Assay: cell-based or functional assay

Binder | EC50 (pM), re-directed T cell cytotoxicity: cytolysis of Raji cells by human CD8 T cells [pM]
SI-77H3 (hexaGNC antibody, humanized CD19 binding domain H4 at D1) (other) heavy: ENVLTQSPASLSASPGERVTITCSASSSVSYMHWYQQKPGQAPKLWIYDTSKLASGVPSRFSGSGSGNDHTLTISSMEPEDFATYYCFQGSVYPFTFGQGTKVTVLGGGGSGGGGSGGGGSGGGGSQVTLKESGPGLVQPGQTLSLTCAFSGFSLSTSGMGVGWIRQPPGKGLEWLAHIWWDDDKRYNPALKSRLTISKDTSKNQVYLQMNSLDAEDTAVYYCARMELWSYYFDYWGQGTLVTVSSGGGGSGGGGSQVQLQQSGPGLVKPSETLSITCTVSGFSLTNYGVHWIRQAPGKCLEWLGVIWSGGNTDYNTPFTSRFTITKDNSKNQVYFKLRSVRADDTAIYYCARALTYYDYEFAYWGQGTLVTVSSASTKGPSVFPLAPSSKSTSGGTAALGCLVKDYFPEPVTVSWNSGALTSGVHTFPAVLQSSGLYSLSSVVTVPSSSLGTQTYICNVNHKPSNTKVDKRV[omitted - human IgG1 Fc with changes]GGGGSGGGGSEVQLLESGGGLVQPGGSLRLSCAASGFSFSSGYDMCWVRQAPGKGLEWIACIAAGSAGITYDANWAKGRFTISRDNSKNTLYLQMNSLRAEDTAVYYCARSAFSFDYAMDLWGQGTLVTVSSGGGGSGGGGSGGGGSGGGGSDIQMTQSPSTLSASVGDRVTITCQASQSISSHLNWYQQKPGKAPKLLIYKASTLASGVPSRFSGSGSGTEFTLTISSLQPDDFATYYCQQGYSWGNVDNVFGGGTKVEIKGGGGSGGGGSGRSLVESGGGLVQPGGSLRLSCTASGFTISSYHMQWVRQAPGKGLEYIGTISSGGNVYYASSARGRFTISRPSSKNTVDLQMNSLRAEDTAVYYCARDSGYSDPMWGQGTLVTVSSGGGGSGGGGSGGGGSGGGGSDVVMTQSPSSVSASVGDRVTITCQASQNIRTYLSWYQQKPGKAPKLLIYAAANLASGVPSRFSGSGSGTDFTLTISDLEPGDAATYYCQSTYLGTDYVGGAFGGGTKVEIK light: EIVMTQSPSTLSASVGDRVIITCQASESISSWLAWYQQKPGKAPKLLIYEASKLASGVPSRFSGSGSGAEFTLTISSLQPDDFATYYCQGYFYFISRTYVNSFGQGTKLTVLGGGGSGGGGSGGGGSGGGGSEVQLVESGGGLVQPGGSLSLSCAASGFTISTNAMSWVRQAPGKGLEWVGVITGRDITYYASWAKGRFTISRDTSKNTVYLQMNSLRAEDTAVYYCARDGGSSAITSNNIWGQGTLVTVSSGGGGSGGGGSEIVLTQSPSTLSVSPGERATFSCRASQSIGTNIHWYQQKPGKPPRLLIKYASESISGIPDRFSGSGSGTEFTLTISSVQSEDFAVYYCQQNNNWPTTFGCGTKLTVLRTVAAPSVFIFPPSDEQLKSGTASVVCLLNNFYPREAKVQWKVDNALQSGNSQESVTEQDSKDSTYSLSSTLTLSKADYEKHKVYACEVTHQGLSSPVTKSFNRGECGGGGSGGGGSGGGGSQSALTQPASVSGSPGQSITISCTGTSSDVGGYNFVSWYQQHPGKAPKLMIYDVSDRPSGVSDRFSGSKSGNTASLIISGLQADDEADYYCSSYGSSSTHVIFGGGTKVTVLGGGGSGGGGSGGGGSGGGGSQVQLQESGGGLVKPGGSLSLSCAASGFTFSSYWMSWVRQAPGKGLEWVANINRDGSASYYVDSVKGRFTISRDDAKNSLYLQMNSLRAEDTAVYYCARDRGVGYFDLWGRGTLVTVSS | 8.1
SI-77H6 (hexaGNC antibody, humanized CD19 binding domain H7 at D2, Fab) (other) heavy: EIVLTQSPSTLSVSPGERATFSCRASQSIGTNIHWYQQKPGKPPRLLIKYASESISGIPDRFSGSGSGTEFTLTISSVQSEDFAVYYCQQNNNWPTTFGPGTKLTVLGGGGSGGGGSGGGGSGGGGSQVQLQQSGPGLVKPSETLSITCTVSGFSLTNYGVHWIRQAPGKGLEWLGVIWSGGNTDYNTPFTSRFTITKDNSKNQVYFKLRSVRADDTAIYYCARALTYYDYEFAYWGQGTLVTVSSGGGGSGGGGSQVTLKESGPGLVQPGQTLRLTCAFSGFSLSTSGMGVGWIRQPPGKCLEWLAHIWWDDDKRYNPALKSRLTISKDTSKNQVYLQMNSLDAEDTAVYYCARMELWSYYFDYWGQGTLVTVSSASTKGPSVFPLAPSSKSTSGGTAALGCLVKDYFPEPVTVSWNSGALTSGVHTFPAVLQSSGLYSLSSVVTVPSSSLGTQTYICNVNHKPSNTKVDKRV[omitted - human IgG1 Fc with changes]GGGGSGGGGSEVQLLESGGGLVQPGGSLRLSCAASGFSFSSGYDMCWVRQAPGKGLEWIACIAAGSAGITYDANWAKGRFTISRDNSKNTLYLQMNSLRAEDTAVYYCARSAFSFDYAMDLWGQGTLVTVSSGGGGSGGGGSGGGGSGGGGSDIQMTQSPSTLSASVGDRVTITCQASQSISSHLNWYQQKPGKAPKLLIYKASTLASGVPSRFSGSGSGTEFTLTISSLQPDDFATYYCQQGYSWGNVDNVFGGGTKVEIKGGGGSGGGGSGRSLVESGGGLVQPGGSLRLSCTASGFTISSYHMQWVRQAPGKGLEYIGTISSGGNVYYASSARGRFTISRPSSKNTVDLQMNSLRAEDTAVYYCARDSGYSDPMWGQGTLVTVSSGGGGSGGGGSGGGGSGGGGSDVVMTQSPSSVSASVGDRVTITCQASQNIRTYLSWYQQKPGKAPKLLIYAAANLASGVPSRFSGSGSGTDFTLTISDLEPGDAATYYCQSTYLGTDYVGGAFGGGTKVEIK light: EIVMTQSPSTLSASVGDRVIITCQASESISSWLAWYQQKPGKAPKLLIYEASKLASGVPSRFSGSGSGAEFTLTISSLQPDDFATYYCQGYFYFISRTYVNSFGQGTKLTVLGGGGSGGGGSGGGGSGGGGSEVQLVESGGGLVQPGGSLSLSCAASGFTISTNAMSWVRQAPGKGLEWVGVITGRDITYYASWAKGRFTISRDTSKNTVYLQMNSLRAEDTAVYYCARDGGSSAITSNNIWGQGTLVTVSSGGGGSGGGGSENVLTQSPASLSASPGERVTITCSASSSVSYMHWYQQKPGQAPKLWIYDTSKLASGVPSRFSGSGSGNDHTLTISSMEPEDFATYYCFQGSVYPFTFGCGTKVEIKRTVAAPSVFIFPPSDEQLKSGTASVVCLLNNFYPREAKVQWKVDNALQSGNSQESVTEQDSKDSTYSLSSTLTLSKADYEKHKVYACEVTHQGLSSPVTKSFNRGECGGGGSGGGGSGGGGSQSALTQPASVSGSPGQSITISCTGTSSDVGGYNFVSWYQQHPGKAPKLMIYDVSDRPSGVSDRFSGSKSGNTASLIISGLQADDEADYYCSSYGSSSTHVIFGGGTKVTVLGGGGSGGGGSGGGGSGGGGSQVQLQESGGGLVKPGGSLSLSCAASGFTFSSYWMSWVRQAPGKGLEWVANINRDGSASYYVDSVKGRFTISRDDAKNSLYLQMNSLRAEDTAVYYCARDRGVGYFDLWGRGTLVTVSS | 30.2
